The text below walks through data of the RNAGym collection of RNA variant scans (doi:10.7554/elife.90254).

The source gives no read counts; variants with many changes may rest on few reads.

B1: LINE1-full (parent)
chain: UACGUAGGUGGUUUUCCCCUGAUAGUGCUAAGGGGGCCUGGAAGUUUGGACUGGGCAGAGCUCAACACAGCGUGGCAAAGUGGCUGUGGCUAGACUGCCUCUCUGGAUUCCUCGUCACUCAGCAGGGCAUCUCUGAGAGAAAUGCC

The variants in the data set derive from B1. Briefly: self-cleavage, relative activity (ratio to wild type); higher = more cleavage; in vitro, sequencing; the parent is a self-cleaving ribozyme.
Consider G25U G82A U102C A136G, for which the self-cleavage is 1.18.
Take A24G A50U U112C: the self-cleavage came to 1.15.
With A24G G53U A117G the figure was 1.15; with U26A A69G A107U A121U, 0.67.
With A22U A24C A69G A94G the figure was 0.44.
On to U23C C71U A136G, for which the self-cleavage is 1.27.
Consider U23C A43G A94G, for which the self-cleavage turned out to be 1.62.
With G25A U26A A65G the figure was 0.06; with A22G U62C U109C, 0.15; with U23A A78G C95U, 0.2.
As to U23C U45C A129G, the self-cleavage turned out to be 0.
Next, A24G U39C A117U: 1.52.
With A22U U46A U96A U100C U102C the figure was 0.11; with U23C G83A U102C, 0.33.
With A24G A31G A42G G97A A138U the figure was 0.47.
Consider A24G A77U U81A C123A, for which the self-cleavage was determined as 1.15.
Next, A24G A57U U112C U130C: 0.28; U26A A78G U108C: 1.93; G25A U81C G82A A124C: 2.38.
Next, U26A A59G G60U: 0.04; A24G C28A A79G G125U: 0.9; A24G U73A U85C C90G U130C: 0.1.
With G25U A30G A107U the figure was 1.14; with A22G U62C U102C U119C A140G, 0.
For the variant A22G U85A C113U, the self-cleavage was determined as 0.07.
Regarding A24G U52A A59C, the self-cleavage was 2.51.
Next, A22U A59C C95U: 0.16.
For A22U U132C U143C, the self-cleavage is 1.24.
For A24G U29C U62C A69C, the self-cleavage turned out to be 0.
Next, U23C U26C A141G: 1.29; U23A U46A U112C: 1; A24G U115C U132C: 1.41.
With A24G C51U A136G the figure was 0.93; with A24G U39C U52A A141C, 1.05; with U23A A140U A141G, 1.98.
With A24U U46C A64G the figure was 0.14; with A24G U52A A59U C71A U115A, 0.28; with A24U U46A U112C, 0.7.
On to U23A U73C U85C G93U U115A A136G, for which the self-cleavage turned out to be 0.02.
As for A22U G33A U39C A43G A57G A67U U85A U91A A94U, the self-cleavage turned out to be 0.
Next, A22U G86A U91C U100C: 0.05.
Next, A24U C101U C131U U143C: 1.06.
With A24G A42G U112A U132C the figure was 1.71; with A24U U29C G55A A67G U115C A136G, 0.22.
For G25A U85C A138U, the self-cleavage came to 0.35.
Next, A22U G53A U104C: 1.95; G25A A117U A138U: 0.73.
A22G U102C A142G: the self-cleavage stood at 1.71.
Next, U23A U102C A138U: 1.26.
Consider U23G A57U A67G G86A A140G, for which the self-cleavage worked out at 0.1.
On to U23C A30G A69U C123U, for which the self-cleavage amounted to 0.04.
With G25A U39C U62C U109A A117G the figure was 0; with U23C A50G U132A, 1.06.
Turning to U23G A69U A136G, the self-cleavage is 0.07.
Next, A24U G35A U100A: 0.53; A24U A69G U91C C111U A136G: 0.
Turning to A22U A64U G89A A92G A121U, the self-cleavage was determined as 0.03.
With U23C U45C U62C the figure was 0.
As for A24G C71U A121G G139U, the self-cleavage was found to be 0.61.
With U23C U26C G75A the figure was 1.11; with U23C U85C U102A, 0.56; with A22G U47C C116U U130C, 1.51.
With G25A A65G U102C G106A the figure was 0.04.
For the variant G25U A42G A121C, the self-cleavage turned out to be 1.28.
Next, A24G A69G C128U A142G: 0.
Consider A22U U46C G55A A94G A138G, for which the self-cleavage is 0.12.
Next, U23C G54A U87A: 0.05.
With A24U G55A A77G the figure was 0.28; with U26A A57U A64G, 0.53.
With A22U A43G A79G the figure was 0.48.
Consider A24G A50G G126A U143C, for which the self-cleavage came out at 0.84.
Next, A24U U102A A107G U109C: 0.97; A24U U108C U109C U132A: 1.09.
With U23C C28G U52A A94G the figure was 0.57.
Take A24U U26C A59G: the self-cleavage was 0.29.
Consider A24G C56U A57G A124G, for which the self-cleavage turned out to be 0.02.
With G25A U85A G105U U115A A138G the figure was 0.06; with A22U A57G U73C C113U, 0.87; with U26A A50U A57G, 0.46.
With G25A G60A A77G U102C the figure was 0.04; with A24G A57G U96A A124G A138G, 1.31; with A22U U73C G125U A141G, 0.66.
Next, A22U A43G G106A A117U A140G: 0.64; U23C A64G U81A A121G: 0.28.
For the variant A24U U29A G33U, the self-cleavage worked out at 0.92.
Next, A24G A42G C71U U108C: 1.96; U23C U47A A136G: 1.1.
With A24U G36U U109A the figure was 1.21; with A22U U102C U104G C123U, 1.
As for U26A A42G A140C, the self-cleavage worked out at 0.9.
With A22U G32A U46C C63U A77G the figure was 0.61; with A24G U29G C38U G58U U96G, 0; with U23A A57G C76U A121G, 1.62.
Next, U23C G34U A79G U115A U130C: 1.24; A24G A43G A121G: 1.23; A24G A42G U115C: 1.31.
Next, A22U A30G U52A A69G: 1.38.
With A22G U52C A65G G83U U104A, the self-cleavage is 0.09.
For A24G U46C A138G, the self-cleavage was 0.84.
Next, U26A A78U G83A G127A: 0.72.
With A24U U115C U119C the figure was 1.65; with A24U A79U A107G, 2.76.
Next, A24C A67U U91C A129G: 0; G25C C133U U134A: 0.99.
As for A24G U46C A64G A77G, the self-cleavage was 0.
Next, U23C A59G U62C U115G: 0.
With A24G A50G U62C U102C A129U, the self-cleavage is 0.
Next, U26A A78G A124G U134G: 0.23; A22G U52C A64U: 0.39.
With A22G U52C A64G the figure was 0.35.
Next, A22U U39C U46A A59G: 0.14.
Regarding A24U G32A A57G A79G, the self-cleavage was 0.42.
Next, A24G G36A G41A A64G A78G U100C U115C: 0.23; A24G A50G A77G: 1.67.
Next, U23C U62A U96A U108C A124G: 0.15; A22U G33A A43G: 1.26; G25C U45C A57G: 0.97.
With A22U U23C U46C the figure was 1.13; with A22U A69G U108C, 0.48; with U23G G34A U46G U102C, 1.33.
Take U26A A57G A78U: the self-cleavage amounted to 0.77.
Turning to U23A U29C U134A, the self-cleavage amounted to 1.3.
Next, A24G C37U A77G U108C A136G: 1.99.
With A24G A31G U62C A129U the figure was 0.31; with U26A A57G G72A A129G, 0.68.
With A24G A69G U85G the figure was 0.33.
On to A22G U104C A124U, for which the self-cleavage worked out at 1.53.
G25U A59G A94U: the self-cleavage was determined as 0.02.
With A22G U73C G83A A138U the figure was 1.32; with U23A A78G U85A, 0.08.
Turning to U23C A24G G25A U52A A57G, the self-cleavage was 0.68.
As for A22U U62A U81C, the self-cleavage amounted to 0.02.
Take U26A A50U G58A A140U: the self-cleavage amounted to 0.03.
Next, U23C C113U A129U A138U: 1.33; A22G U52A U112C: 1.23; U23C A59U U87A A107G: 0.11.
Next, U26A A57U G58A: 0; A22U A67G U85A U102C A107G: 0.
With A22G U62A A78U the figure was 0.08; with U26A A31G A57U A79G, 0.2; with U23C A67G G127U, 0.88.
With U23A A92G G126U, the self-cleavage worked out at 0.14.
Regarding A22G U96A A107U U132C, the self-cleavage was 0.2.
As to U23C U45C A136G, the self-cleavage was 0.
Next, A22G U96A U115A C128U: 0.02; U23C G34A U52A: 0.81; U23C A43G A67C U119C: 0.
With U23C U134C A138G the figure was 2.76; with A24G U52C G55A, 0.16; with A24C A92U U102C U134G A141G, 1.15.
A22G U52C A59U: the self-cleavage came to 1.38.
Take U23C U85A A121G: the self-cleavage came out at 0.02.
Regarding U23A A42G U115C U143C, the self-cleavage came to 1.67.
Next, U23C A42C A57U A67G A141G: 0.74; U26A A50G C56U U87A: 0.04; A24G A43U U85C: 0.46.
Turning to U23C A77U U119A, the self-cleavage was 1.77.
As to A22U G44A U119A, the self-cleavage turned out to be 1.68.
With A22U U132C A138G, the self-cleavage stood at 1.31.
Next, A22U U39C U119C U130C: 1.18; A24G U26G A92G: 0.66.
Turning to A24U A57G U102C, the self-cleavage stood at 1.34.
With U26A A64G A140G the figure was 0.11; with A22U U62A U73C U100C A138U, 0.11.
Next, A24U U45C U87C U143A: 0; U23C U26A A79G: 1.39.
With U23C U112C U119A the figure was 1.02.
